Source: PubChem BioAssay AID485364 (National Center for Advancing Translational Sciences (NCATS), 2010)
About 11,000 (3.1%) of roughly 360,000 compounds were called active. This list was built around the results that the source calls inconclusive (neither active nor inactive); the mix of calls is not that of the screen. Calls come from the whole dose curve; as a rule, active = well fitted inhibition curve with a large enough effect; inconclusive = small, poorly fitted or top-dose-only effect; inactive = no such curve, though single readings can be large or run the other way. Potencies of inconclusive entries are left out as doubtful fits.
% is set by controls: 0 for no effect and ±100 for the full control effect; potency is the fitted concentration of half-maximal effect; tags give direction and shape of the fitted curve.
Note: nearly all actives have a fitted effect of over 60% in size.

These compounds were tested against Schistosoma mansoni thioredoxin glutathione reductase (TGR) (UniProt Q962Y6) (assay: qHTS Assay for the Inhibitors of Schistosoma Mansoni Peroxiredoxins). Details: purified TGR, DTNB reduction, TNB absorbance 405 nm; activity change, negative = inhibition: at 114 µM (top of the series) unless noted.
Method in brief: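 First, TGR (20 nM dispensed) and NADPH were mixed with compound. Second, a 15 min room-temperature incubation followed. Third, further NADPH and then DTNB were added to start the reaction. Finally, TNB absorbance was monitored kinetically.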
With `COc1cc2cc3c(N)c(C(=O)NCc4ccco4)sc3nc2cc1OC` the Potency was inconclusive [inhibitor, single point]. `COc1ccc(-c2c(C)oc3c(CN4CCOCC4)c(O)ccc3c2=O)cc1OC` was tested, and the Potency was inconclusive [inhibitor, partial curve]. With `CSCCC(NS(=O)(=O)c1ccc2[nH]c(=O)c(=O)[nH]c2c1)C(=O)O` (stereo not given) the “activity change, negative = inhibition” value was inactive: 8.51%. For `COC(=O)C1=C(C)NC(=O)/C1=C\c1cc(C)n(-c2ccccc2)c1C`, the Potency was active: 28.2 µM. In the case of `Cc1cccc(C)c1NC(=S)N(Cc1ccccc1)Cc1cccnc1`, the “activity change, negative = inhibition” value is reported as inactive: -17.3%. `CCOC(=O)c1cc(-c2cc3ccccc3o2)n[nH]1` was tested, and the Potency was inconclusive [inhibitor, single point]. For `Fc1ccc(Cn2ccc(-c3cnc(-c4ccccc4)s3)n2)cc1`, the “activity change, negative = inhibition” value was inactive: 3.36%. `Cc1cc(N2C(=O)C(=O)/C(=C(/O)c3ccc(Cl)cc3)C2c2cccc(Br)c2)no1` (stereo not given) was tested, and the Potency was inconclusive [inhibitor, partial curve, poor fit]. `O=C1[C@@H]2C(c3cccnc3)=NO[C@@H]2C(=O)N1c1ccc(Br)cc1` was tested, and the Potency was active: 3.55 µM. With `Cc1cccc(N2C(=O)CC(Sc3nc(C)c4c(n3)CCCC4)C2=O)c1` (stereo not given) the Potency was inconclusive [inhibitor, single point]. For `Cc1cccc(C)c1NC(=O)N1CCN(c2nc3ccccc3s2)CC1`, the “activity change, negative = inhibition” value was inactive: 6.8%. In the case of `CN(c1ccc(OCC(=O)N2CCN(c3ccc(F)cc3)CC2)cc1)S(=O)(=O)c1cccs1`, the Potency is reported as inconclusive [inhibitor, partial curve]. For `N#Cc1c2ccc(O)cc2n2ccccc12`, the Potency was inconclusive [inhibitor, partial curve, poor fit]. For `Cc1cc(/C=C(\C#N)C(=O)NC2CCCCCC2)c(C)[nH]1`, the Potency was inconclusive [inhibitor, partial curve]. With `O=C(c1ccco1)N1CCN(S(=O)(=O)c2ccccc2)CC1` the Potency was inconclusive [inhibitor, partial curve]. In the case of `NC(=O)C1CCN(C(=O)CN2CCCc3ccccc32)CC1`, the Potency is reported as inconclusive [inhibitor, partial curve]. In the case of `NC(=O)CN1C(=O)NC2(CCCc3ccccc32)C1=O` (stereo not given), the Potency is reported as inconclusive [inhibitor, full curve, poor fit]. In the case of `O=C(O)c1ccc(-n2c(=O)c3ccccc3c3ccccc3c2=O)cc1`, the Potency is reported as inconclusive [inhibitor, partial curve]. For `CCc1ccccc1-n1nnc(-c2nc(-c3ccccc3F)no2)c1C`, the “activity change, negative = inhibition” value was inactive: 1.53%. `Nc1scc2c(C(=O)N/N=C/c3ccc(Cl)cc3)nn(-c3ccccc3)c(=O)c12` was tested, and the “activity change, negative = inhibition” value was inactive: -3.55%. In the case of `Fc1ccc2nc(-c3ccccc3)nc(SCc3nnc(-c4ccccc4)o3)c2c1`, the Potency is reported as inconclusive [inhibitor, single point]. For `N#C/C(=C\c1ccc(N2CCCC2)c([N+](=O)[O-])c1)c1nc2ccccc2[nH]1`, the activity change, negative = inhibition was inconclusive: -36.3% [inhibitor]. For `Cc1ccc(C)c(C(=O)OCC(=O)Nc2cccc(S(=O)(=O)N3CCCCC3)c2)c1`, the “activity change, negative = inhibition” value was inactive: -0.741%. With `C=C1C[C@H]2[C@@H]3C=C(C)C4=CC(=O)CC[C@]4(C)[C@H]3CC[C@]2(C)[C@@]1(OC(C)=O)C(C)=O` the Potency was inconclusive [inhibitor, partial curve]. With `Cc1ccc(/C(O)=C2/C(=O)C(=O)N(CCN3CCOCC3)C2c2ccccn2)cc1` (stereo not given) the Potency was active: 25.1 µM. `COc1cccc(Nc2ccc(N3CCCCC3)cc2)c1OC` was tested, and the Potency was inconclusive [inhibitor, partial curve, poor fit]. For `COc1ccccc1CNc1ccc(N2CCCCC2)cc1`, the Potency was active: 10 µM. With `COc1cc2c(cc1OC)C(c1ccc(-c3ccc(Cl)c(Cl)c3)o1)=NCC2` the Potency was inconclusive [inhibitor, partial curve, poor fit]. In the case of `O=C(O)CCC(CNS(=O)(=O)c1ccccc1)C(F)(F)F` (stereo not given), the Potency is reported as inconclusive [inhibitor, single point]. In the case of `NC(=O)C1CCN(C(=O)c2ccccc2NC(=O)c2nsc3ccccc23)CC1`, the “activity change, negative = inhibition” value is reported as inactive: 4.71%. With `CCC(=O)N(CCc1ccccc1)Cc1cc2cc(C)ccc2[nH]c1=O` the Potency was inconclusive [inhibitor, single point]. For `O=C1NCCN/C1=C\C(=O)c1ccccc1`, the “activity change, negative = inhibition” value was inactive: 4.12%. With `CCCCC(C)(O)C/C=C/[C@H]1[C@H](O)CC(=O)[C@@H]1CCCCCCC(=O)OC` (stereo not given in full) the Potency was inconclusive [inhibitor, partial curve]. For `C=CCOc1ccc(CN(C)C(=O)C2CCCO2)cc1` (stereo not given), the Potency was inconclusive [inhibitor, partial curve]. For `CCN(C(=O)N1CCOCC1)c1ccccc1C`, the “activity change, negative = inhibition” value was inactive: 5.69%. `COc1cc(/C=C2\COC/C(=C\c3cc(OC)c(OC)c(OC)c3)C2=O)cc(OC)c1OC` was tested, and the Potency was inconclusive [inhibitor, partial curve]. With `O=C(O)CN1C(=O)/C(=C\c2cc(Br)ccc2OCc2ccc(Cl)cc2)SC1=S` the “activity change, negative = inhibition” value was inactive: -28.3%. `COc1ccc(C(=O)C2CCCN(C(=O)c3ccc(CSC)o3)C2)cc1F` (stereo not given) was tested, and the Potency was active: 28.2 µM. In the case of `N#C/C(=C\c1ccccc1)C(=O)Nc1ccccn1`, the Potency is reported as inconclusive [inhibitor, single point]. `Cc1ccccc1N1C(=O)NC(=O)/C(=C\c2ccc3c(c2)CCCN3Cc2ccccc2)C1=O` was tested, and the Potency was inconclusive [inhibitor, full curve]. In the case of `CCOC(=O)c1cc(-c2ccco2)nc2c1c(C)nn2CCC#N`, the Potency is reported as active: 3.98 µM. For `COc1ccc(-n2nc3c(N4CCCC(C(=O)NCc5ccccc5C)C4)nnc(C)c3c2C)cc1` (stereo not given), the “activity change, negative = inhibition” value was inactive: -20.2%. In the case of `CC(=O)[C@@H]1[C@@H](C(=O)c2ccc(C)cc2)[C@]2(C(=O)Nc3ccccc32)[C@H]2C=Cc3cc(F)ccc3N12`, the Potency is reported as inconclusive [inhibitor, partial curve]. For `Cc1ccc(C2/C(=C(/O)c3cnn(-c4ccccc4)c3C)C(=O)C(=O)N2CCCN2CCOCC2)o1` (stereo not given), the Potency was active: 10 µM. With `Cc1nc(CN(C)C(=O)CC2C(=O)NCCN2Cc2ccc(F)cc2)cs1` (stereo not given) the Potency was inconclusive [inhibitor, partial curve].
